Reference: the supplement of paper PMC8792480
Counter-ions that a name gives are not always drawn. The list shows a part of the results. Repeats are few or missing, and single values can be far off.

test system: A549; assay: cell-surface PD-L1 MFI ratio relative to radiation alone (isotype-subtracted); higher = higher PD-L1 surface expression; details: inducer: radiation 8 Gy; 10 µM; 24 h
Method: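 A549 and H460 NSCLC cells were treated with each library drug at 10 uM, then with radiation (8 Gy) or cisplatin (4 uM), and incubated for 24 h. Cell-surface PD-L1 was measured by flow cytometry as an MFI ratio: (MFI drug+inducer - MFI isotype)/(MFI inducer alone - MFI isotype). Hits were defined as ratio < 0.75.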
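Further: surface PD-L1 on NSCLC cells stained with a PE-labelled anti-human PD-L1 antibody before flow cytometry, screening a library of roughly two hundred mostly kinase and epigenetic inhibitors.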

Row | Structure (SMILES) | cell-surface PD-L1 MFI ratio
1 | C[C@@H](Oc1cc(-c2cnn(C3CCNCC3)c2)cnc1N)c1c(Cl)ccc(F)c1Cl | inactive: 0.831
2 | C=CCn1c(=O)c2cnc(Nc3ccc(N4CCN(C)CC4)cc3)nc2n1-c1cccc(C(C)(C)O)n1 [Adavosertib (MK-1775)] | inactive: 1.06
3 | CC(C)(C)c1nc(-c2ccc(NC(=O)Nc3cccc(C(F)(F)F)c3)c3ccccc23)c2c(N)nccn12 [kira6] | inactive: 2.31
4 | COCCOc1nc(-c2ccc(Cl)c(Cl)c2)n(-c2ccc(NC(=O)CCl)cc2)n1 [MI-2 (MALT1 inhibitor)] | inactive: 1.1
5 | CC(C)(C)c1cc(NC(=O)Nc2ccc(-c3cn4c(n3)sc3cc(OCCN5CCOCC5)ccc34)cc2)no1 [Quizartinib (AC220)] | inactive: 0.922
6 | COc1cccc(OCCCN)c1-c1cc(Nc2cnc(C#N)cn2)n[nH]1 | inactive: 1.16
7 | Cc1ccc(C(=O)c2cc(O)c(O)c([N+](=O)[O-])c2)cc1 [Tolcapone] | inactive: 1.58
8 | CCc1ccc(/C=C2/SC(=S)NC2=O)cc1 | active: 0.66
9 | Cc1ccccc1C(=O)N1CCc2cc(-c3nc(NC(=O)Cc4ccc5c(c4)OCO5)sc3C)ccc21 | active: 0.69
10 | Nc1ccc2ncnc(NCCc3ccc(Oc4ccccc4)cc3)c2c1 | inactive: 0.901
11 | CC(C)Oc1ccc(-c2c[nH]cc2CN(C)CCN)cc1 | inactive: 0.864
12 | COc1cc2nccc(Oc3ccc(NC(=O)C4(C(=O)Nc5ccc(F)cc5)CC4)cc3)c2cc1OC [Cabozantinib] | inactive: 1.3
13 | Cc1ccc(CNc2ncnc3ccc(-c4ccc(CO)o4)cc23)o1 | inactive: 0.825
14 | COc1cc(Br)c(Nc2nc(-c3c(C)nc4ncccn34)cs2)c(Br)c1 | active: 0.733
15 | CC(=O)c1c(C)c2cnc(Nc3ccc(N4CCNCC4)cn3)nc2n(C2CCCC2)c1=O | inactive: 0.848
16 | CC(C)n1c(=O)n(C)c2cnc3cc(F)c(-c4ccc(OCCCN5CCCCC5)nc4)cc3c21 | inactive: 0.896
17 | CC[C@@H]1C(=O)N(C)c2cnc(Nc3ccc(C(=O)N[C@H]4CC[C@H](N5CCN(CC6CC6)CC5)CC4)cc3OC)nc2N1C(C)C [Volasertib (BI 6727)] | inactive: 1.24
18 | OCC1OC(O)CC(O)C1O [2-Deoxy-D-glucose] | inactive: 0.97
19 | CS(=O)(=O)CCNCc1ccc(-c2ccc3ncnc(Nc4ccc(OCc5cccc(F)c5)c(Cl)c4)c3c2)o1 | inactive: 1.35
20 | COc1ccc(CCc2nc3cc(-c4c(C)noc4C)ccc3n2C[C@H](C)N2CCOCC2)cc1Cl | inactive: 0.751

Row | Structure (SMILES) | cell-surface PD-L1 MFI ratio
21 | CC(C)[C@H]1C(=O)N[C@@H](CCCNC(=N)N)C(=O)NCC(=O)N[C@@H](CC(=O)O)C(=O)N[C@H](Cc2ccccc2)C(=O)N1C [Cilengitide trifluoroacetate] | active: 0.6
22 | CN1CCN(c2ccc(-c3cccc(CN4CCOCC4)c3)cc2NC(=O)c2c[nH]c(=O)cc2C(F)(F)F)CC1 | inactive: 0.916
23 | CN1c2ccccc2C(=O)Nc2cnc(Nc3ccc(N4CCC(O)CC4)cc3)nc21 | active: 0.682
24 | CCOc1ccn(-c2ccc(F)cc2)c(=O)c1C(=O)Nc1ccc(Oc2ccnc(N)c2Cl)c(F)c1 | inactive: 1.19
25 | COc1ncc(-c2ccc3nccc(-c4ccnnc4)c3c2)cc1NS(=O)(=O)c1ccc(F)cc1F | inactive: 1.13
26 | C[C@@H]1CCN(C(=O)CC#N)C[C@@H]1N(C)c1ncnc2[nH]ccc12 | active: 0.748
27 | CC1(C)C(=O)N(CCN2CCC(C(=O)c3ccc(F)cc3)CC2)c2ccccc21 | inactive: 1.12
28 | CC(C)(C(=O)NCC(F)(F)C(F)(F)F)C(=O)N[C@@H]1C(=O)Nc2ccccc2-c2ccccc21 | inactive: 0.931
29 | O=C(O)c1ccc2c3c1cccc3c(=O)n1c3ccccc3nc21 | inactive: 1.09
30 | Cc1cn(CCN2CCN(c3ccccc3-c3cc(C#N)cc(C(=O)NCCCN4CCCC4)c3)CC2)c2ccccc12 | inactive: 1.07
31 | Oc1nc(-c2ccc(C(F)(F)F)cc2)nc2c1CSCC2 | inactive: 1.09
32 | Cc1nc(NC(=O)N2CCC[C@H]2C(N)=O)sc1-c1ccnc(C(C)(C)C(F)(F)F)c1 [Alpelisib (BYL719)] | active: 0.7
33 | CC(C)S(=O)(=O)c1ccc2nccc(Nc3ccc4scnc4c3)c2c1 | active: 0.676
34 | N#CC1(c2ccc(NC(=O)c3cccnc3NCc3ccncc3)cc2)CCCC1 [Apatinib] | inactive: 1.35
35 | FC(F)(F)c1ccc(CNc2ccc(Cc3c[nH]c4ncc(Cl)cc34)cn2)cn1 [Pexidartinib (PLX3397)] | inactive: 0.822
36 | CC(C)CCN1c2nc(Nc3cc(F)c(O)c(F)c3)ncc2N(C)C(=O)C1C (stereo not given) | inactive: 1.27
37 | C[C@@H]1COCCN1c1cc(C2([S@](C)(=N)=O)CC2)nc(-c2cc[nH]c3nccc2-3)n1 | active: 0.74
38 | Cc1cc(C(C)Nc2ccccc2)c2nc(N3CCOCC3)cc(=O)n2c1 (stereo not given) | inactive: 1
39 | Oc1ccc(Nc2nc(-c3ccc(Cl)cc3)cs2)cc1 | active: 0.657
40 | CN(CC(=O)N(Cc1ccc(C2CCCCC2)cc1)c1ccc(C(=O)O)cc1)S(=O)(=O)c1c(F)c(F)c(F)c(F)c1F | inactive: 1.06
